# Among all 340,000 compounds or so, about 6,900 (2%) were called active. Cut-off read from the data, not from the text of the source: active = inhibition above about 30%; inactive = below that, where a call was filed. This is a selection; strong and weak results do not stand in their true shares. Where no call is shown, the source filed none.
# Target: D(2) dopamine receptor (Homo sapiens) (UniProt P14416)
# Assay: HTS Assay for Allosteric Antagonists of the Human D2 Dopamine Receptor: Primary Screen for Antagonists; note: 0% is about no effect
# Conditions: HEK293 TREx D2 cells, calcium flux, dopamine EC80; at 10 µM; stronger effect = higher value
# Outline: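 Tetracycline-induced HEK293 T-REx cells expressing D2 force-coupled to calcium signalling were dye-loaded, exposed to compound for 180 s, then challenged with an EC80 of dopamine; calcium flux was followed kinetically for a further 180 s.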
# Chain of UniProt P14416 (P14416 whole entry, looked up): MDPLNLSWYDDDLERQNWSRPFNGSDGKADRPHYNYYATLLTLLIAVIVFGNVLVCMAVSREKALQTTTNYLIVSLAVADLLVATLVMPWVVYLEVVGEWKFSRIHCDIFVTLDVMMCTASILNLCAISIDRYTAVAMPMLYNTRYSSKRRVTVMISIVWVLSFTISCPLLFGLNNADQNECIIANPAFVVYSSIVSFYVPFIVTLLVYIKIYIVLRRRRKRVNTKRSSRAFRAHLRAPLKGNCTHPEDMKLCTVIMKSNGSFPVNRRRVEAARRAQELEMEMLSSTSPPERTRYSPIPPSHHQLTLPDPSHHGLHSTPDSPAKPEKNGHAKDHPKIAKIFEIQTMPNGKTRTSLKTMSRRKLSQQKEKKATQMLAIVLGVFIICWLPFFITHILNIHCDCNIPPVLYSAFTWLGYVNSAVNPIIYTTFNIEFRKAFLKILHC
row,SMILES,inhibition
1,COCCn1c(N)c(C#N)c2nc3ccccc3nc21,active: 36%
2,Cc1cc(OCc2nn[nH]n2)c2c(-c3ccccc3)cc(=O)oc2c1,active: 51.1%
3,O=C(NC1CCCC1)c1ccc2c(=O)n(Cc3ccccc3)c(SCc3ccccc3F)nc2c1,-11.2%
4,COc1ccc(C)cc1NC(=O)CCN1CCN(c2ccccc2)CC1,active: 81.7%
5,CN1CCN(CCC=C2c3ccccc3Sc3ccc(S(=O)(=O)N(C)C)cc32)CC1,active: 77.4%
6,O=c1nc2s/c(=C\c3ccco3)c(=O)n2nc1Cc1ccc(F)cc1,active: 35.3%
7,COc1ccccc1CNC(=O)C1CCN(c2nc3ccc(C)cc3[nH]2)CC1,0.402%
8,Clc1ccccc1OCCSc1nnc(-c2cccs2)o1,-18.4%
9,O=C(CSc1nc(=O)n(Cc2ccco2)c2c1CCC2)NCc1ccccc1,-17.3%
10,CCc1ccc2oc(-c3ccc(C)c(NC(=O)/C=C/c4ccco4)c3)nc2c1,4.93%
11,Cc1sc2ncn(CC(=O)N3CCN(c4ccccc4F)CC3)c(=O)c2c1S(=O)(=O)N1CCC(C)CC1,16.4%
12,Cc1ccc2nc(/C(C#N)=C/c3ccccc3F)[nH]c2c1,-10.4%
13,CCS(=O)(=O)N1CCc2cc(C(=O)NCc3ccccc3OC)ccc21,-14.3%
14,CCOc1ccc(CCNC(=O)C2CCCN(S(=O)(=O)N(C)c3ccc(F)cc3)C2)cc1 (configuration not stated),-9.45%
15,COc1cccc(NC(=O)C2CCC(CNS(=O)(=O)c3ccc4c(c3)CCCC(=O)N4)CC2)c1 (configuration not stated),3.58%
16,CCn1cc(CNC(=O)c2cc(-c3ccc(C)cc3)nc3ccc(Br)cc23)c(C)n1,-17.2%
17,O=C(NCc1ccccc1)C(=O)Nc1c2c(nn1-c1ccc(F)cc1)CSC2,1.07%
18,COc1ccc(NC(=O)CN2C(=O)COc3ccc(S(=O)(=O)N4CCOCC4)cc32)cc1,10.5%
19,COc1cccc(NC(=O)C2CCN(c3ccc(Sc4ccc(C)cc4)nn3)CC2)c1,2.13%
20,Cc1ccc(CNC(=O)C(C)n2c(=O)cc(C(F)(F)F)c3c(C)nn(C)c32)cc1 (configuration not stated),-8.13%
21,CCn1nc(C)c(CCN(C)C(=O)Nc2cccc(Cl)c2C)c1C,9.72%
22,Cc1cccc(C(=O)N2CCc3cc(CNC(=O)c4cc5ccccc5[nH]4)ccc32)c1,7.37%
23,Cc1ccc(S(=O)(=O)C(CNC(=O)c2c(F)cccc2F)c2ccco2)cc1 (configuration not stated),2.22%
24,Cc1cc(C)c(S(=O)(=O)NCCS(=O)(=O)N2CCN(c3ccccc3)CC2)c(C)c1,-2.8%
25,O=S(=O)(c1ccccc1)c1nc(-c2ccccc2Cl)oc1N1CCCCCC1,2.53%

row,SMILES,inhibition
1,COc1ccc(CCNC(=O)c2ccc3c(c2)sc2nc(-c4ccccc4)cn23)cc1OC,19.5%
2,COc1cccc(C(=O)NCCc2csc3nc(-c4ccccc4F)nn23)c1OC,-10%
3,CCOC(=O)c1cc(-c2ccc(OC)cc2)n(CCC(=O)NCCc2ccccc2)c1C,18%
4,Cc1ccccc1N(C)S(=O)(=O)c1nnc(NC(=O)c2ccco2)s1,-7.99%
5,Cc1cc(OCC(=O)NCCc2nc3ccccc3[nH]2)cc(C)c1Cl,-6.54%
6,Cc1ccc(CNC(=O)Cn2c(SCC(=O)Nc3ccc(F)cc3)nc3ccccc32)cc1,9.07%
7,CCOc1cc(/C=C2\CCCc3c2nc2ccccc2c3C(=O)O)ccc1OC,active: 38.1%
8,COc1cc(Cl)c(C)cc1NC(=O)COC(=O)C1=COCCO1,active: 31.6%
9,CCOC(=O)c1cccc(NC(=O)c2ncoc2-c2ccco2)c1,-5.98%
10,COc1cccc(Nc2nc3cc(C)ccc3nc2NS(=O)(=O)c2ccc(Cl)cc2)c1,-24.2%
11,Cc1nc2ccccn2c(=O)c1NC(=O)c1cccc(F)c1,4.02%
12,COc1ccc(NC(=O)c2cc3cc(C)ccc3n2C)c(OC)c1,active: 34.4%
13,COc1ccc(NC(=O)/C=C\C(=O)N(c2ccc(C(C)C)cc2)C(C(=O)NCc2ccco2)c2ccc(C)cc2)cc1 (configuration not stated),-19.1%
14,CCOc1ccc(C2C(=O)N(C3CCCCCC3)CC(=O)N2Cc2ccccc2)cc1OC (configuration not stated),-0.735%
15,Cc1cc(C)cc(OCCSc2nc3ccc(NC(=O)c4ccc5c(c4)OCO5)cc3s2)c1,1.04%
16,CCc1ccc2[nH]cc(S(=O)(=O)c3ccc(C(C)C)cc3)c(=O)c2c1,-12.2%
17,Oc1ccccc1-c1nc(-c2cccs2)c(-c2cccs2)[nH]1,-5.6%
18,O=C(COc1ccccc1Cl)Nc1ccc(OCc2cc(=O)n3ccsc3n2)cc1,-16.3%
19,N#Cc1c[nH]n2c(NC3CCCCC3)c(-c3ccc(F)cc3)nc12,15%
20,Cc1cccc(-n2ccnc2SCC(=O)Nc2cccc3ccccc23)c1,-13.5%
21,CN1CCN(CCCCOc2ccccc2-c2ccccc2)CC1,active: 69.9%
22,CCOc1ccc(-c2cn3c(n2)sc2cc(C(=O)NCCCN4CCCCCC4)ccc23)cc1,7.3%
23,Cc1cc(C)c2nc(N(Cc3cccnc3)C(=O)CCS(=O)(=O)c3ccccc3)sc2c1,-23.1%
24,Cc1cc(NC(=O)C2CCN(S(=O)(=O)c3c(C)noc3C)CC2)ccc1Br,15.1%
25,CC1=C(C(=O)Nc2cccnc2)C(c2ccc(F)cc2)n2nc(-c3cccc(C)c3)nc2N1 (configuration not stated),14.4%

row,SMILES,inhibition
1,COc1ccccc1CNC(=O)C1(c2cccs2)CCOCC1,1.34%
2,COc1ccc(-c2nc3nc(C)cc(C)n3c2Nc2c(C)cccc2C)cc1,5.66%
3,CCc1ccccc1NC(=O)Cn1nc2c3cc(F)ccc3n(Cc3cccc(C)c3)cc-2c1=O,7.12%
4,COc1ccc(NC(=O)CCc2c(C)nc3c(c2C)c(=O)n(C)c(=O)n3C)c(OC)c1,-13.6%
5,O=C(COc1ccccc1F)Nc1ccc2nc(SCC(=O)N3CCc4ccccc43)sc2c1,8.91%
6,CCOC(=O)c1c(NC(=O)c2cc(-c3ccccc3OC)on2)sc(C)c1C,-26.1%
7,C/C(=N\NC(=O)c1ccc(-c2ccccc2)cc1)C1C(=O)c2ccccc2C1=O,active: 84.4%
8,OCCC1CN(Cc2ccc(F)cc2)CCN1CCc1ccccc1 (configuration not stated),active: 42.7%
9,CSc1nc(NCCOC(C)=O)c(C#N)c(-c2ccc(C(C)(C)C)cc2)n1,-1.54%
10,COc1ccc(C2C(=O)N(C3CCCCC3)CC(=O)N2CCc2ccc(C)cc2)cc1OC (configuration not stated),8.07%
11,CC(NC(=O)c1cc(S(=O)(=O)N(C)C)ccc1Cl)C1CC2CCC1C2 (configuration not stated),active: 35.2%
12,Clc1ccc(OCCCCN2CCc3ccccc3C2)cc1,active: 91%
13,CNC(=O)C1CCC(Cn2c(=O)c3sccc3n(Cc3cc(C)ccc3C)c2=O)CC1 (configuration not stated),2.45%
14,COc1ccc(N2C(=O)NC(NS(=O)(=O)c3ccc(Cl)cc3)(C(F)(F)F)C2=O)cc1 (configuration not stated),13.8%
15,Cc1ccccc1-c1nc(CN2CCCC(C(=O)NCc3ccc(Cl)cc3)C2)c(C)o1 (configuration not stated),15.6%
16,CCN(C(=O)Cn1c(C(=O)OC)cc2sc(Cl)cc21)c1cccc(C)c1,-4.95%
17,CCc1ccc(S(=O)(=O)c2cn(CC(=O)Nc3ccc(F)c(Cl)c3)c3ccccc3c2=O)cc1,0.671%
18,COc1ccc([N+](=O)[O-])cc1NC(c1nnc(-c2ccccc2)o1)c1ccccc1F (configuration not stated),0.999%
19,COc1ccccc1C1NC(=O)c2n[nH]c(-c3cccs3)c21 (configuration not stated),16.4%
20,CC1CCN(C(=O)c2c(NC(=O)c3ccccc3Cl)sc3c2CCC(C(C)(C)C)C3)CC1 (configuration not stated),-12.7%
21,COc1cc(C2CC(=O)N(Cc3cccc(F)c3)c3ccccc3S2)cc(OC)c1OC (configuration not stated),-1.36%
22,COc1ccc(C2CCCN2C(=O)c2cccs2)cc1 (configuration not stated),active: 78.5%
23,Cc1cc2nc(-c3ccc(OCc4ccccc4C)cc3)cc(C(F)(F)F)n2n1,2.93%
24,Cc1ccc(CN2C(=O)C(O)(c3c(C)[nH]c4ccccc34)c3ccccc32)cc1 (configuration not stated),-14.1%
25,CCCOC(=O)c1cccc(Nc2nc(CCC)cc(=O)[nH]2)c1,-11.3%

row,SMILES,inhibition
1,COc1ccc(NC(=O)C2CCC(CNS(=O)(=O)c3cccc4nsnc34)CC2)cc1OC (configuration not stated),-11.1%
2,COCCNC(=O)CCCn1c(SCC(=O)Nc2ccc(F)cc2)nc2c(sc3ccccc32)c1=O,6.87%
3,COc1ccc(C(=O)n2nc(N)c3cc4ccc(C)cc4nc32)cc1OC,-10.2%
4,CCOC(=O)Cn1c(=N)n(Cc2ccc(C(C)(C)C)cc2)c2ccccc21,-5.88%
5,COC(=O)c1cc2oc(C)cc2n1Cc1ccccc1Cl,2.59%
6,Cc1nc2cc(-c3ccccc3)nn2c(C)c1CCC(=O)N1CCN(c2ccc(F)cc2)CC1,11.3%
7,COc1ccc(Cl)cc1NC(=O)c1c(NCc2ccc(C)o2)sc2c1CCC(C)C2 (configuration not stated),10.5%
8,Cc1ccc(-c2cn3cccnc3n2)cc1NC(=O)C(C)(C)Oc1ccc(Cl)cc1,9.41%
9,COc1ccc(N(C(=O)CNC(=O)c2ccco2)C(C(=O)NC2CCCCC2)c2cccnc2)cc1 (configuration not stated),active: 38.1%
10,C=C(C)CSc1nc2sc3c(c2c(=O)n1Cc1ccccc1)CC(C)(CC)OC3 (configuration not stated),-1.05%
11,Cc1c(C(=O)Nc2ccccc2Br)oc2ccc(S(=O)(=O)N3CCCCCC3)cc12,-20.4%
12,COc1cccc(NCc2cccn2-c2nnc(N3CCC(C)CC3)s2)c1,-2.19%
13,CCC(C)NC(=O)CN1C(=O)c2cccnc2Sc2ccccc21 (configuration not stated),4.63%
14,O=c1cc(-c2ccccc2)c2ccc3c(c2o1)CN(Cc1cccc(Cl)c1)CO3,3.49%
15,Cc1ccccc1NC(=O)Cn1c(=O)n(CCCC(=O)NCc2ccc3c(c2)OCO3)c(=O)c2ccccc21,18.4%
16,CCOc1ccc(CC(=O)Nc2cccc(-c3nc4cccnc4s3)c2C)cc1,14.8%
17,COc1ccc2[nH]cc(CCN=C(NC(=O)c3ccccc3F)Nc3nc(C)cc(C)n3)c2c1,6.66%
18,CC1N=C2c3ccccc3N=C(SCC(=O)NCCc3ccc(Cl)cc3)N2C1=O (configuration not stated),-3.35%
19,CCn1c2ccccc2c2cc(CN3CCN(Cc4ccc(Br)cc4)CC3)ccc21,0.765%
20,O=C(CCS(=O)(=O)c1cc2c(cc1Cl)NC(=O)CO2)NCc1ccc(Cl)cc1,21.3%
21,O=C(Cc1ccc(Cl)cc1)NNC(=S)NC(=O)c1cccnc1,active: 39.7%
22,Cc1cccc(Nc2ncnc3onc(-c4ccc(Cl)cc4)c23)c1C,15.5%

# Reference: PubChem BioAssay AID485344 (National Center for Advancing Translational Sciences (NCATS), 2010)
